This is one part of the list. A value given as a limit tells only on which side of the number the result lay.

For the experiment, the system named is T1, Caupolican (Caup) homeodomain DNA-binding domain.
T1 sequence: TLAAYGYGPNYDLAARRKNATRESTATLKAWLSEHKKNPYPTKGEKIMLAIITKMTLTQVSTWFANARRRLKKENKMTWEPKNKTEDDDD
The experiment can be described thus: PBM E-score (8-mer, recovered from the published 9-mer minima) (E-score (dimensionless, -0.5 to 0.5)); Drosophila protein; higher = stronger relative binding preference, active = 0.31 or more. A digest of the protocol: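 Caup's homeodomain DNA-binding domain (residues 214-303) was produced by in vitro transcription and translation and applied at 100 nM to custom-designed protein binding microarrays. Each value is an enrichment score giving relative binding preference for a short DNA word; higher means stronger. Published 9-mer scores were the minimum of their two constituent 8-mer scores, and the 8-mer values were recovered from those minima. A cutoff of 0.31 marks candidate binding sequences.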
In the case of AACACTGG, the “PBM E-score” value was inactive: 0.125. The result for TCTAAACA reads inactive: 0.191; that for AGCCGTAA, inactive: -0.0484; that for CCTGCTAA, inactive: -0.139. For GCGCACCA the value was inactive: -0.0965. The result for GAGCAGCC reads inactive: -0.0103. Consider GTATGTCA, for which the “PBM E-score” value was active: 0.345. For CGCATGCA the value was inactive: 0.025. The result for AGGCCGTA reads inactive: -0.041.

For AGTAATAA, the “PBM E-score” value is inactive: 0.186.

ACTAAGAG: the “PBM E-score” value is inactive: -0.0163. For AGCGGTGA the value was inactive: -0.113; for CAGAACAG, inactive: 0.0845.

On to GATTTCGA, for which the “PBM E-score” value is inactive: -0.0262.

As for GAAATGCC, the “PBM E-score” value was inactive: -0.0434.

As for AGAAAGAC, the “PBM E-score” value was inactive: -0.0431. The result for CCCCAACC reads inactive: -0.122.

GGACGTCC: the “PBM E-score” value was inactive: -0.158. For AATAGTGC the value was inactive: -0.0386; for CAGTACAC, inactive: 0.288; for CATAAGTC, inactive: 0.0202. The result for CTACATCC reads inactive: 0.189. For CCCGGGAG the value was inactive: -0.242; for GACCAATC, inactive: -0.0206. As for ACTGCTCT, the “PBM E-score” value was inactive: -0.0664. The result for GTACTGCA reads inactive: 0.125; that for GTGTCAGA, inactive: 0.245. For GTTGAGAA the value was inactive: -0.0618; for ATTAACGG, inactive: 0.0134. Consider ATGGCCTA, for which the “PBM E-score” value is inactive: -0.0812. The result for AGGGGGTC reads inactive: -0.29; that for TCCCTGCA, inactive: -0.0684. For GACGTGCC the value was inactive: -0.117. For CAGGTCGA the value was inactive: 0.00523; for ACGAAACC, inactive: 0.0811. Consider AAGACTGT, for which the “PBM E-score” value is inactive: -0.00912. Turning to AAGTTGAG, the “PBM E-score” value was inactive: -0.0111. For GGATTCGA the value was inactive: 0.0364; for AACTCGTC, at least 0.126. As for ACTTCTCG, the “PBM E-score” value is inactive: -0.0017. Regarding CACTCAGC, the “PBM E-score” value is inactive: -0.108.

In the case of AGAAAAAA, the “PBM E-score” value was inactive: 0.0119. For ATCCTTGG the value was inactive: -0.0733. The result for CCATTTAA reads inactive: 0.0674; that for AATTCGAG, inactive: -0.0149. For GCACCGAA the value was inactive: -0.0211; for AAGTGATG, inactive: 0.113; for AGTGTTGA, inactive: 0.0384. As for AGGGGCAA, the “PBM E-score” value is inactive: -0.106.

AGTCTAGG: the “PBM E-score” value is inactive: -0.0306.

As for ATCCATTC, the “PBM E-score” value is inactive: 0.0344. With AAAGCGAA, the “PBM E-score” value is inactive: -0.0738. For CATTGGGG the value was inactive: -0.0653; for CAGGGTTC, inactive: -0.112. For AAACAAGG the value was inactive: 0.231. The result for AATACCCA reads inactive: 0.0274; that for CGTACTGC, inactive: -0.0592. For the sequence GGTATTAC, the “PBM E-score” value was inactive: 0.171. The result for GGGACCGA reads inactive: -0.122.

AGTTCCAA: the “PBM E-score” value is inactive: 0.0569.

Take AATTGCAC: the “PBM E-score” value was inactive: 0.0835. For GTAAGACA the value was inactive: 0.153; for TATTTAAA, inactive: 0.132. For GCAACGGA the value was inactive: -0.0514. The result for TAAGCAAA reads inactive: 0.0585; that for CAGTACCG, inactive: 0.0729; that for GTTTGAGA, inactive: 0.0472. ACAATCTC: the “PBM E-score” value was inactive: 0.0902. The result for AACTCACC reads inactive: -0.0396; that for CGTAGAAC, inactive: -0.0877.

As for ATAGAAGC, the “PBM E-score” value is inactive: 0.00935. For AGGATGTA, the “PBM E-score” value was at least 0.305. For ACTGGCCG the value was inactive: -0.194; for GACGTTTA, inactive: 0.0351. For CTGTCTAC the value was inactive: 0.0659; for GAAAAATC, inactive: -0.0429; for CCGCGTTC, inactive: -0.0728. For GACGATGA the value was inactive: 0.0505; for AAAATCGG, inactive: -0.0552. With ACCTGTAT, the “PBM E-score” value was inactive: 0.222. For GTCCTGGA, the “PBM E-score” value is inactive: -0.0617. With GCCCGCGA, the “PBM E-score” value was inactive: -0.207.

As to CAGGGGGC, the “PBM E-score” value is inactive: -0.266. As to AGCGGTAG, the “PBM E-score” value was inactive: -0.0759. Take CAAATATA: the “PBM E-score” value is inactive: 0.147. The result for CAGGACGC reads inactive: -0.0476; that for CATATCGG, inactive: 0.0413; that for ACAGGTGA, inactive: 0.195.

For AGGGTCCG, the “PBM E-score” value is inactive: -0.24. AGTTCCCA: the “PBM E-score” value was inactive: -0.0512.

With CTTCTCCA, the “PBM E-score” value was inactive: -0.184. For CGCGATGC the value was inactive: -0.272; for CCGAGTAG, inactive: -0.0123; for ATCCCGGG, inactive: -0.0372. For CAGCTGAA the value was inactive: -0.03; for AGGAATTG, inactive: 0.121; for GGCCGCGA, inactive: -0.26. For CACCTAGC the value was inactive: -0.146. As for GTGATATA, the “PBM E-score” value was inactive: 0.152. For ACTGAGTC the value was inactive: -0.0541. The result for ATGAAGCC reads inactive: -0.016; that for CGCACAAC, inactive: 0.0805; that for TCTTCACA, inactive: 0.0795. The result for ATCTCCGA reads at least -0.0458; that for CCAACACG, inactive: 0.237. On to GCCTGTCC, for which the “PBM E-score” value was inactive: -0.0708. For CGGACGAG the value was inactive: -0.143; for GTACCGCA, inactive: -0.0137. The result for AATGAATA reads inactive: 0.14; that for ACTAACCT, inactive: 0.15. The result for CTATACCC reads inactive: -0.104.

These data come from the supplement of paper PMC3724861.
